# Reference: ChEMBL document CHEMBL5606460, “ASAP - DENV-2 NS2B-NS3 protease fluorescence single point” (2024)
# Screen size: about 2,000 compounds; about 110 (5.5%) showed an effect of 50% or more. The list shows a part of the results.
# Biological target: Genome polyprotein (dengue virus type 2) (UniProt P29990)
# [1] = Thailand/16681/1984, Concentration 25.0 uM, Number of replicates 1.0
smiles,measurement,setting,value
CCCOc1ccc([C@H](C)NC(=O)C2CCN(c3ccc(C=O)cc3)CC2)cc1,inhibition,[1],7.26%
COc1ccccc1N1CCN(C(=O)c2cccc(Cc3cccc4c(CO)cc(C)nc34)c2)CC1,inhibition,"Thailand/16681/1984, Concentration 49.95 uM, Number of replicates 2.0, Standard deviation 0.6431934456432933 %",-0.936%
same,inhibition,"Thailand/16681/1984, Concentration 99.9 uM, Number of replicates 2.0, Standard deviation 0.11282846216281567 %",3.6%
COc1cc(Cc2cc(F)c3c(c2)CC(=O)N3)nc(N2CCNCC2)n1,inhibition,"Thailand/16681/1984, Concentration 49.5 uM, Number of replicates 2.0, Standard deviation 0.6150371592018935 %",-4.98%
same,inhibition,"Thailand/16681/1984, Concentration 99.01 uM, Number of replicates 2.0, Standard deviation 0.5721276213203463 %",-3.56%
same,inhibition,"Thailand/16681/1984, Concentration 198.0 uM, Number of replicates 2.0, Standard deviation 0.9306609149462733 %",-1.84%
Nc1ccc(/C=C/C(=O)C(=O)N2CCN(CCc3ccccc3)CC2)cc1,inhibition,"Thailand/16681/1984, Concentration 49.5 uM, Number of replicates 2.0, Standard deviation 0.14046836541625998 %",23.4%
same,inhibition,"Thailand/16681/1984, Concentration 99.01 uM, Number of replicates 2.0, Standard deviation 0.26272659487750905 %",40.1%
same,inhibition,"Thailand/16681/1984, Concentration 198.0 uM, Number of replicates 2.0, Standard deviation 0.8058693227147314 %",60.1%
c1ccc2[nH]c(CC3CCN(c4ncnc5[nH]ccc45)CC3)nc2c1,inhibition,"Thailand/16681/1984, Concentration 49.5 uM, Number of replicates 2.0, Standard deviation 4.772497632487813 %",-2.04%
same,inhibition,"Thailand/16681/1984, Concentration 99.01 uM, Number of replicates 2.0, Standard deviation 4.5827419837796395 %",-1.49%
same,inhibition,"Thailand/16681/1984, Concentration 198.0 uM, Number of replicates 2.0, Standard deviation 5.067620233885826 %",1.19%
NCc1ccc(NC(=O)[C@@H](NC(=O)OCc2ccccc2)c2ccc(OCc3ccccc3)cc2)cc1,inhibition,"Thailand/16681/1984, Concentration 49.5 uM, Number of replicates 2.0, Standard deviation 0.2921733335266154 %",1.85%
same,inhibition,"Thailand/16681/1984, Concentration 99.01 uM, Number of replicates 2.0, Standard deviation 0.5182536650923871 %",1.48%
same,inhibition,"Thailand/16681/1984, Concentration 198.0 uM, Number of replicates 2.0, Standard deviation 0.5806748336109616 %",1.92%
O=C(Nc1ccc2c(c1)CNC2)c1cc(Cl)cc2[nH]c(-c3cc(C4CC4)[nH]n3)nc12,inhibition,"Thailand/16681/1984, Concentration 99.5 uM, Number of replicates 2.0, Standard deviation 0.13306805316732315 %",94.6%
same,inhibition,"Thailand/16681/1984, Concentration 295.6 uM, Number of replicates 2.0, Standard deviation 0.23606011523727233 %",88.6%
Cc1cc(CO)c2cccc(Cc3cccc(NC(=O)Cc4nnc(C)[nH]4)c3)c2n1,inhibition,"Thailand/16681/1984, Concentration 49.95 uM, Number of replicates 2.0, Standard deviation 1.2741879074535936 %",3.5%
same,inhibition,"Thailand/16681/1984, Concentration 99.9 uM, Number of replicates 2.0, Standard deviation 2.117340332361062 %",15.6%
Cc1cc(CO)c2cccc(NCc3ccc(C)o3)c2n1,inhibition,"Thailand/16681/1984, Concentration 49.95 uM, Number of replicates 2.0, Standard deviation 1.8316716905525268 %",14.8%
same,inhibition,"Thailand/16681/1984, Concentration 99.9 uM, Number of replicates 2.0, Standard deviation 1.056399631157552 %",24.7%
CC(C)Nc1nc2cc(NC(=O)[C@@H](NC(=O)OC(C)(C)C)c3ccccc3)ccc2[nH]1,inhibition,"Thailand/16681/1984, Concentration 49.5 uM, Number of replicates 2.0, Standard deviation 1.6144805508061877 %",-4.38%
same,inhibition,"Thailand/16681/1984, Concentration 99.01 uM, Number of replicates 2.0, Standard deviation 0.9738051264803291 %",-3.44%
same,inhibition,"Thailand/16681/1984, Concentration 198.0 uM, Number of replicates 2.0, Standard deviation 1.1960694823819247 %",-2.77%
CC(=O)Nc1ccc(NC(=O)C2CCN(c3ccc(C=O)cc3)CC2)c(C(F)(F)F)c1,inhibition,[1],14.6%
CN(C)CCNC(=O)c1ccc(N2CCNCC2)nc1,inhibition,"Thailand/16681/1984, Concentration 49.5 uM, Number of replicates 2.0, Standard deviation 3.571913716868189 %",-4.62%
same,inhibition,"Thailand/16681/1984, Concentration 99.01 uM, Number of replicates 2.0, Standard deviation 2.0054637146250163 %",-3.89%
same,inhibition,"Thailand/16681/1984, Concentration 198.0 uM, Number of replicates 2.0, Standard deviation 1.2373052846154071 %",-1.98%
CCn1ncc(Cc2cc(OC)nc(N3CCNCC3)n2)c1F,inhibition,"Thailand/16681/1984, Concentration 49.5 uM, Number of replicates 2.0, Standard deviation 1.4530630100438908 %",-1.17%
same,inhibition,"Thailand/16681/1984, Concentration 99.01 uM, Number of replicates 2.0, Standard deviation 2.9455327966098612 %",-1.68%
same,inhibition,"Thailand/16681/1984, Concentration 198.0 uM, Number of replicates 2.0, Standard deviation 1.1187861286248701 %",-0.743%
O=C(Nc1ccc2c(c1)CNC2)c1cc(Cl)cc(C(F)(F)F)n1,inhibition,"Thailand/16681/1984, Concentration 99.5 uM, Number of replicates 2.0, Standard deviation 0.07984298981903766 %",98%
same,inhibition,"Thailand/16681/1984, Concentration 295.6 uM, Number of replicates 2.0, Standard deviation 0.03008678069059277 %",99.8%
Cc1cn(-c2cc(NC(=O)C3CCN(c4ccc(C=O)cc4)CC3)cc(C(F)(F)F)c2)cn1,inhibition,[1],12.1%
NCc1ccc(C[C@H](NC(=O)c2ccccc2)C(=O)Nc2cccc(C(N)=O)c2)cc1,inhibition,"Thailand/16681/1984, Concentration 49.5 uM, Number of replicates 2.0, Standard deviation 0.2094720287352659 %",-3.21%
same,inhibition,"Thailand/16681/1984, Concentration 99.01 uM, Number of replicates 2.0, Standard deviation 1.2712236353041253 %",-1.98%
same,inhibition,"Thailand/16681/1984, Concentration 198.0 uM, Number of replicates 2.0, Standard deviation 0.9103772804850719 %",-0.193%
COc1cccc2c(NCc3ccc(F)cc3)nccc12,inhibition,"Thailand/16681/1984, Concentration 49.95 uM, Number of replicates 2.0, Standard deviation 5.311619298096004 %",-8.98%
COc1ccc2nc(C(F)(F)F)nc(N3CCN(c4ccc(N)nc4)CC3)c2c1,inhibition,"Thailand/16681/1984, Concentration 49.5 uM, Number of replicates 2.0, Standard deviation 1.255766362906452 %",10.4%
same,inhibition,"Thailand/16681/1984, Concentration 99.01 uM, Number of replicates 2.0, Standard deviation 0.6332142520276719 %",22.8%
same,inhibition,"Thailand/16681/1984, Concentration 198.0 uM, Number of replicates 2.0, Standard deviation 1.6656488479471416 %",39.7%
Cc1cc(CO)c2cccc(CC(=O)N[C@@H](C)C(N)=O)c2n1,inhibition,"Thailand/16681/1984, Concentration 49.95 uM, Number of replicates 2.0, Standard deviation 0.6764350022386235 %",-6.74%
same,inhibition,"Thailand/16681/1984, Concentration 99.9 uM, Number of replicates 2.0, Standard deviation 0.17585957987303982 %",-4.59%
CC(C)(CO)NC(=O)c1cc(Cl)cc(NC(=O)Cc2cccc(N3CCOCC3)c2)c1,inhibition,"Thailand/16681/1984, Concentration 49.5 uM, Number of replicates 2.0, Standard deviation 3.685760784065816 %",-4.97%
same,inhibition,"Thailand/16681/1984, Concentration 99.01 uM, Number of replicates 2.0, Standard deviation 1.8930329501247494 %",-3.18%
same,inhibition,"Thailand/16681/1984, Concentration 198.0 uM, Number of replicates 2.0, Standard deviation 0.7981856150564074 %",-3.79%
